# In the supplement of paper PMC11417369:
# ± gives the standard deviation of the averaged measurements. Some of the results follow.
# Tested on: PfAP2-I AP2 domain 3 (GST-tagged)
# Test: gcPBM binding intensity (ln(normalized median fluorescence intensity)); higher = stronger DNA binding
# Procedure, shortened: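 GST-tagged P. falciparum DNA-binding domains produced in E. coli were incubated for 1 h on an Agilent 4 × 180k array of primer-extended double-stranded 36-bp intergenic genomic probes with negative controls. Binding intensity is the highest Masliner-normalised natural-log median intensity across replicate spots of either probe orientation, with bound protein detected by Alexa488 anti-GST antibody at 488 nm.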
row,Sequence,gcPBM binding intensity (ln)
1,AATAATCATAGTTCTACACACCTATATTGCAAAAAA [CACACA_site867],8.08 ± 0.49
2,GGTTCATATATTAACACACACATACATATTATATAT [CACACA_site2937],8.1 ± 0.47
3,TGAGAGAGAAACGTAGTGCATAAAATCAAATTTAGA [GTGCAC_site9737],10.6 ± 0.33
4,TTATAAAAAATTTTAGTGCATATATGATTTATATAT [GTGCAC_site9831],10.1 ± 0.33
5,TAATATGTATTTACAAGTACTAACAAAATATTAAAA [XGTACX_site3379],7.79 ± 0.3
6,TACAAAAATAAATGTTGTACTATTATTTATTTCGAT [XGTACX_site1048],7.45 ± 0.23
7,TTCATTAAATAGAACAAAATAATAATATAACAACAA [GTGCAC_negctrl_site116],7.74 ± 0.53
8,TTAAAGATATACAAAAGTACTTTTTTTTTCGTCATT [XGTACX_site384],7.58 ± 0.34
9,CCATATCTTTTTTGCACACACTACAATAAAACAAAA [CACACA_site4995],9.95 ± 0.2
10,ACATACATACACCCACGTACGTACCGAAACACCACC [XGTACX_site1212],8.9 ± 0.42
11,GATATAATGTGTTTGGTATTCTTGATAGATAGTTTT [CACACA_negctrl_site1711],7.7 ± 0.47
12,ATGATGTCTTTATATTGTACATATATGAAGACGTTA [XGTACX_site7751],7.79 ± 0.29
13,TTTAAATAAAATATTACACACTTAGAAAAATATATA [CACACA_site3663],7.42 ± 0.51
14,ACTTCAAAAATAAACTGTACGTAAAAAAAAAAAAAA [XGTACX_site795],8.32 ± 0.31
15,TTTCTTTTTTTTTTTGTATATTAAATCTAAAAAGGA [TGCATGCA_negctrl_site431],7.47 ± 0.3
16,TTTCGTAAAATGAAATGTACTCAAAAGTAAATATAA [XGTACX_site214],7.63 ± 0.43
17,AAATTAAAATAATAATTCTACAAATTAATTTATCAT [XGTACX_negctrl_site44],7.29 ± 0.51
18,TATCAAATGTATATATGTACTTATATTTTTTTTATA [XGTACX_site1501],7.63 ± 0.27
19,AATATATTTTCCTGCAAACACACATATAAATGTGTA [CACACA_site532],8.37 ± 0.83

row,Sequence,gcPBM binding intensity (ln)
1,TATATTACAAAAAGTACACACATAAATAAATACATA [CACACA_site975],7.97 ± 0.22
2,ATGCTCAAAAGATATGCATGTACAAATATATGAAAT [TGCATGCA_site592],7.87 ± 0.68
3,TTTTATGATAATTTTGCACACACTTAGGAAAAATTA [CACACA_site1556],9.27 ± 0.099
4,TTTATTTAATTCATTGCATGTAATTTTTGTGTCCAC [TGCATGCA_site677],7.83 ± 0.71
5,TTAAAAAAAAATGGCACACATTTTAATTTTATGTTT [CACACA_site5035],7.75 ± 0.33
6,AGAATAAAAAGGAACACACACACACGCATATAAATA [CACACA_site7659],7.95 ± 0.49
7,GTAATATTATAATATACACACATAGAATATAAATAT [CACACA_site6333],7.89 ± 0.29
8,TTCAAGATTTATTATACACACATATTAATATATATA [CACACA_site573],8.01 ± 0.33
9,AAAATACACCAACACACACACATATATATATATATT [CACACA_site4149],8.04 ± 0.38
10,TTATTTTTTCTTTTTTTTCTTACCACAAAAATGGAT [CACACA_negctrl_site362],7.67 ± 0.76
11,ATTTATTTATATAATACACACAAATATCTTAATGAA [CACACA_site6064],7.58 ± 0.29
12,ATTTTTTCTAATGGGTGTACTGAAACGTATTTTATT [XGTACX_site6573],8.16 ± 0.58
13,ATTTGTAATTATTAAACACACACAAAATATATATAA [CACACA_site8804],7.81 ± 0.65
14,AAAAAAAAAAAAAACACACACATATCTATAATATAT [CACACA_site7481],8.1 ± 0.29
15,TTGTGATTATATAATCGTACATAATTTTAATCACAC [XGTACX_site398],7.81 ± 0.28
16,CAAAACAAAGTTGCCGCACACAGATACGCACCCAAG [CACACA_site3455],9.775 ± 0.078
17,GAATATAAACATATTACACACATCTATATGTACTTT [CACACA_site8582],7.82 ± 0.67
18,AAATAAATATATATATGTACATACAAATACACGGTA [XGTACX_site8510],7.92 ± 0.59
19,AAGAAAAATGTCATATGATATCATATATTTTATAAT [TGCATGCA_negctrl_site296],7.36 ± 0.54

row,Sequence,gcPBM binding intensity (ln)
1,ATTTTCCCTTGTTTTACACACGTGCTGATATGAGAT [CACACA_site2164],8.88 ± 0.99
2,AATTATGCATTTGTCACACATATATATTACACTTGC [CACACA_site5324],8.23 ± 0.49
3,AAAAAAAAAAAAAAATGTACATTATACACATTATAT [XGTACX_site6824],8.17 ± 0.31
4,TAGCCAAAATATAATTTACACACTTATTAAATAATT [CACACA_site7963],7.46 ± 0.38
5,ATATAATATTGAGTTTGTACATATATATATGAAGAT [XGTACX_site4444],7.88 ± 0.35
6,AAACAAATGTACAAAGTGCATATTTTTTTCAAAAGG,8.97 ± 0.085
7,ACATATGTATAATAATGTACGCATTAAATATAATTA [XGTACX_site7851],7.75 ± 0.37
8,AAAAAAAAATAAAATAAAATAAAATAAAATAATATA [CACACA_negctrl_site1798],7.32 ± 0.57
9,ATAATATATATTAATACACACACACCGATATATATA [CACACA_site9261],8.27 ± 0.68
10,GACCAATACTTTAAAAGTACAAACCTTATTTTATTT [XGTACX_site2718],7.93 ± 0.57
11,AGGAGGATATTACACAGTACCCAGGAAATCTACGGA [XGTACX_site4878],7.92 ± 0.46
12,TATTTTATAAATACAAGTAAAATTAAATATATAATA [XGTACX_negctrl_site221],7.42 ± 0.41
13,TTGTACTACAATCCTTTATTTATTTAAACCTGTATG [CACACA_negctrl_site428],7.7 ± 0.59
14,TATATAAATAGACACACACACACATATAAATAAATA [CACACA_site7855],7.77 ± 0.37
15,TTTCAATGCATAAAAGTGCGCAATAATTTAAAGATC,9.73 ± 0.071
16,AATGTGATAATATACACACACGCATATATATATATA [CACACA_site323],9.41 ± 0.63
17,CTGTGTAATTTAAATTGTACGTTTGAAAAAAATAAA [XGTACX_site5667],7.88 ± 0.5
18,AAAACACTTATGGATTGTACAATAAAAATTATATTA [XGTACX_site7042],7.88 ± 0.24
19,TTTTAAAGAAAAAAATGTACAAAATTTTTATTTTAA [XGTACX_site1496],7.31 ± 0.47
